From PubChem BioAssay AID686971 (National Center for Advancing Translational Sciences (NCATS), 2013)
Hit rate of the full screen: of about 360,000 compounds, about 7,500 (2.1%) were called active. The shares of active, inactive and inconclusive entries below differ from those in the screen. Calls follow the shape of the dose curve; as a rule, active = well fitted cell-killing curve with a large enough effect; inconclusive = small, poorly fitted or top-dose-only effect, or effect the other way, or another doubt; inactive = no such curve, though single readings can be large or run the other way. Potencies of inconclusive entries are left out as doubtful fits.

Experiment: qHTS for induction of synthetic lethality in tumor cells producing 2HG: qHTS for the HT-1080-IDH1KD cell line;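 as to activity, negative = toxicity: 0% = DMSO wells and -100% = cell-free medium wells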
Settings: HT-1080 IDH1 knockdown viability, ATP luminescence, 48 h; activity, negative = toxicity: at 46.1 µM (top of the series) unless noted
How it was run: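 After a 2 h attachment period, IDH1KD HT-1080 cells took pin-transferred compound for 48 h at 37 °C; ATP-based luminescence after 10 min room-temperature reagent incubation reported viability.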
Potency is read from the fitted curve at half-maximal effect; tags tell the direction and shape of the fitted curve.

Row | SMILES | activity, negative = toxicity | Potency
1 | C=CCNC(=O)c1c(Cl)cccc1Cl | inactive: 14.6% | –
2 | COc1ccc(-c2ccc(NC(=O)c3ccco3)cc2)nn1 | – | active: 20.6 µM
3 | CCc1nc2ccc(C(=O)Nc3cccc(OC)c3)cn2c1N(CCC(C)C)CCN(C)C | – | inconclusive [cytotoxic, partial curve, poor fit]
4 | Cc1ccc(NC(=O)COc2ccccc2)c(NC(=O)c2ccco2)c1 | inactive: 5.48% | –
5 | CCN(CC(=O)Nc1ccc(OC)cc1)C(=O)c1cc(S(=O)(=O)N(C)C)ccc1N1CCCC1 | inactive: -3.61% | –
6 | OCC(O)/C=N/Nc1nc(Nc2ccccc2)nc(Nc2ccccc2)n1 (stereo not given) | – | inconclusive [cytotoxic, single point]
7 | CC(=O)N1c2c(ccc3ccccc23)C(C)CC12CCCCC2 (stereo not given) | inactive: -24.3% | –
8 | CN(CC1CCCO1)S(=O)(=O)c1ccc(C(=O)NCc2ccccc2)cc1 (stereo not given) | inactive: 2.8% | –
9 | O=C(Nc1nc2c(F)cccc2s1)C1CC1 | inactive: -0.832% | –
10 | O=[N+]([O-])c1ccc(CN2CCN(c3ccc([N+](=O)[O-])cc3)CC2)cc1 | – | inconclusive [cytotoxic, single point]
11 | COc1ccc(OCC(=O)NNC(=O)c2ccccc2OCc2c(C)noc2C)cc1 | inactive: 10.3% | –
12 | CC(=O)Nc1ccc(OCCCN2CCC(C(O)(c3ccccc3)c3ccccc3)CC2)cc1 | – | inconclusive [cytotoxic, single point]
13 | Cc1oc2cc(OCC(=O)O)ccc2c(=O)c1Oc1ccccc1 | inconclusive: 2.99% | –
14 | O=C(O)CCCc1ccc2c(c1)CCc1ccccc1-2 | inactive: 1.99% | –
15 | CSc1nc2ccc(S(=O)(=O)NC3CCCCC3)cc2s1 | inactive: -1.88% | –
16 | COc1ccc(C2NCCc3c2[nH]c2ccccc32)cc1COc1ccc(F)cc1 (stereo not given) | – | inconclusive [cytotoxic, single point]
17 | N#C/C(=N\Nc1ccc(Cl)cc1)C(N)=S | – | active: 2.31 µM
18 | O=C(O)CCN1C(=O)/C(=C\c2cccc(OCc3ccccc3)c2)SC1=S | inconclusive: -32.4% [cytotoxic] | –
19 | CCC1(C)COC(C)(CC(=O)NNC(=O)Nc2ccccc2)OC1 (stereo not given) | inactive: 20% | –
20 | COc1ccc(OC)c(S(=O)(=O)NC(=O)C2(C)CCN2C(=O)Cc2ccccc2Cl)c1 (stereo not given) | – | inconclusive [rising, single point]
21 | CN(C)CCCNc1nc2sc3c(c2c(=O)n1CCc1ccccc1)CCCCC3 | – | inconclusive [cytotoxic, single point]
22 | Cc1cc(C)c(S(=O)(=O)NCc2ccc3c(c2)cc(C)n3C)c(C)c1 | inactive: -2.97% | –
23 | COc1ccc(N2CCN(C(=O)NCc3ccc(C)cc3)CC2)cc1 | – | inconclusive [cytotoxic, single point]
24 | Cc1cc(C(=O)Nc2ccc(OCc3ccccc3)cc2)c(C)o1 | – | inconclusive [cytotoxic, partial curve]
25 | COc1ccccc1N1CCN(S(=O)(=O)CCNC(=O)c2ccccc2Br)CC1 | inactive: -2.32% | –

Row | SMILES | activity, negative = toxicity | Potency
26 | Cc1sc2ncnc(N3CCC(C(=O)N(C)CC(=O)Nc4cccc(F)c4)CC3)c2c1C | – | inconclusive [cytotoxic, partial curve]
27 | COc1ccc(COC(=O)c2cc([N+](=O)[O-])ccc2N2CCOCC2)cc1F | – | active: 0.0052 µM
28 | CC#CC(=O)N1CCC(n2nccc2NC(=O)CCc2ccccc2)CC1 | inactive: -13.2% | –
29 | COc1ccc(C(=O)/C=C/c2ccc(N(C)C)cc2)c(OC)c1 | – | inconclusive [cytotoxic, single point]
30 | COC(=O)CN1C(=O)C2(C(C#N)=C(N)Oc3c2c(C)nn3-c2ccccc2)c2ccccc21 (stereo not given) | – | inconclusive [cytotoxic, single point]
31 | COc1cc(C(=O)NCCCCc2ccccc2)cc(OC)c1OC | inactive: 0.415% | –
32 | CC(C)c1nnc(NC(=O)COc2ccc3c(c2)OCO3)s1 | – | inconclusive [cytotoxic, partial curve]
33 | O=C(CSC1=NCCN1)NC(c1ccccc1)c1ccccc1 | – | inconclusive [cytotoxic, single point]
34 | Cc1oc(-c2ccc(Cl)cc2)nc1CN1CCC(C(=O)NCc2cccs2)CC1 | – | inconclusive [cytotoxic, partial curve]
35 | O=c1cc(-c2ccccc2)[nH]n1-c1ccccc1 | – | inconclusive [cytotoxic, partial curve]
36 | Cc1ccc(C)c(C(=O)CN2C(=O)c3ccccc3C2=O)c1 | inactive: 10.4% | –
37 | O=C(Cc1c[nH]c2ccccc12)NCc1ccc(Cl)cc1Cl | inactive: -0.253% | –
38 | CCCNC(=O)C1(C)CCN(C(=O)c2ccccc2OC(F)(F)F)C1 (stereo not given) | – | inconclusive [rising, single point]
39 | Cc1ccc(N/N=C/c2c(O)cc(C)oc2=O)cc1 | – | inconclusive [cytotoxic, single point]
40 | c1ccc(-c2nc(N3CCCCCC3)c3ccccc3n2)nc1 | – | inconclusive [cytotoxic, full curve, poor fit]
41 | COc1ccc(S(=O)(=O)N2CCN(C(=O)c3ccc([N+](=O)[O-])o3)CC2)cc1 | – | inconclusive [cytotoxic, single point]
42 | O=c1oc2ccc(Br)cc2cc1S(=O)(=O)c1ccc(F)cc1 | – | active: 14.6 µM
43 | COc1ccc(C2=CN(Cc3ccccc3)C(c3ccccc3)CC2=O)cc1 (stereo not given) | – | inconclusive [cytotoxic, single point]
44 | CCOC(=O)N1CCN(C(=O)C[C@@H]2C[C@@]3(C(=O)OC)CCCCC=C3N(CCC3=CCCCC3)C2=O)CC1 | inactive: -21.7% | –
45 | Cn1c2ccccc2c2cc(/C=N/NC(=O)c3ccc(N)cc3)ccc21 | – | inconclusive [cytotoxic, single point]
46 | O=C(/C=C/c1ccc(Cl)cc1Cl)c1nc2ccccc2[nH]1 | – | inconclusive [cytotoxic, single point]
47 | COc1ccc(OC)c(C=C2CCc3ccccc3C2=O)c1 | – | inconclusive [cytotoxic, single point]
48 | Cc1ccc2nc(-c3ccc(C#N)cc3)c(Cc3ccccc3C(F)(F)F)n2c1 | – | inconclusive [cytotoxic, single point]
49 | CC(C)C(NS(=O)(=O)c1cccs1)C(=O)N1CCC(C(N)=O)CC1 (stereo not given) | inactive: -7.92% | –
50 | C[C@@H]1C[C@H]2[C@@H]3C[C@H](F)C4=CC(=O)C=C[C@]4(C)[C@@]3(F)[C@@H](O)C[C@]2(C)[C@@]1(O)C(=O)COC(=O)C(C)(C)C | inconclusive: 25% | –

Row | SMILES | activity, negative = toxicity | Potency
51 | CCCn1c(=O)c(C(=O)NCCc2ccc(OC)c(OC)c2)c(O)c2ccccc21 | inactive: -6.07% | –
52 | CC(C)(C)Nc1nc(-c2ccccn2)nc2ccccc12 | – | inconclusive [cytotoxic, single point]
53 | COc1cccc(Nc2ccc([N+](=O)[O-])c3nonc23)c1 | – | active: 23.1 µM
54 | O=c1c(Cl)cc(Cl)nn1-c1ccccc1 | – | inconclusive [cytotoxic, single point]
55 | CN(C)S(=O)(=O)Oc1ccc(C(=O)Nc2cccc(C(F)(F)F)c2)cc1 | – | inconclusive [cytotoxic, single point]
56 | Cc1ccc(S(=O)(=O)N2CCN(C(=O)COC(=O)/C=C/c3ccccc3[N+](=O)[O-])CC2)c(C)c1 | inactive: -6.96% | –
57 | COc1ccc(-c2c(C)[nH]n3c(=O)c(Cc4ccccc4)c(C)nc23)cc1 | – | inconclusive [cytotoxic, single point]
58 | CCOc1cc(CNCc2ccncc2)cc(Br)c1OCc1ccccc1F | – | inconclusive [cytotoxic, partial curve]
59 | COc1cccc2c1C(=O)c1c(O)c3c(c(O)c1C2=O)CC(O)(C(=O)CO)CC3OC1CC(N(C)C)C(O)C(C)O1 (stereo not given) | – | active: 0.411 µM
60 | CSCCC(NC(=O)c1ccccc1Cl)C(=O)NCC(c1cccs1)N(C)C (stereo not given) | inactive: 4.04% | –
61 | O=C(NCc1ccc(F)cc1)c1cccc2c1C(=O)c1ccc(N3CCC(Cc4ccccc4)CC3)cc1S2(=O)=O | inactive: 6.39% | –
62 | CC1(C(=O)Nc2cnc3ccccc3c2)CCN1Cc1cc2ccccc2o1 (stereo not given) | – | inconclusive [cytotoxic, single point]
63 | O=C(CCl)Nc1cccn2ncnc12 | – | inconclusive [cytotoxic, single point]
64 | CC(=O)N[C@H]1C(O)O[C@H](CO)[C@@H](O)[C@@H]1O (stereo not given in full) | inactive: 5.3% | –
65 | CCn1c2ccccc2c2cc(NC(=O)c3cc(OC)c(OC)c(OC)c3)ccc21 | – | active: 1.46 µM
66 | Cc1ccc(CN=C(N)Nc2nc(C)cc(C)n2)cc1 | – | active: 7.31 µM
67 | Cc1ccc(SCc2cn3c(C)csc3n2)cc1 | – | inconclusive [cytotoxic, single point]
68 | COc1cccc(CNC(=O)COC(=O)c2ccc(-c3ccc(O)cc3)cc2)c1 | – | active: 20.6 µM
69 | CC(=O)Nc1ccc(Sc2ccc([N+](=O)[O-])o2)cc1 | – | active: 5.8 µM
70 | CCCOC(=O)c1ccc(NC(=O)c2cc(OC)c(OC)c(OC)c2Br)cc1 | inactive: -2.33% | –
71 | Cc1ccc(C)c(OCc2cc(C(=O)N3CCN(c4ccccc4C)CC3C)no2)c1 (stereo not given) | inactive: -25.3% | –
72 | Cn1cc(C2CC(c3ccccc3)=NN2C(=O)c2ccccc2)c2ccccc21 (stereo not given) | – | inconclusive [cytotoxic, single point]
73 | CC(C)S(=O)(=O)C1=NSC2=NC(=O)/C(=C\c3ccc(-c4cccc(C(=O)O)c4)o3)C(=N)N21 | inactive: 3.64% | –
74 | O=C(/C=C/Nc1ccc(Oc2ccccc2)cc1)c1ccco1 | – | inconclusive [cytotoxic, single point]
75 | CC1=NN(c2ccc(Cl)cc2)C(=O)/C1=C\c1cccn1-c1ccc(S(N)(=O)=O)cc1 | – | inconclusive [cytotoxic, single point]
